Laboratory results reported in ChEMBL document CHEMBL4145660, “LLY-283, a Potent and Selective Inhibitor of Arginine Methyltransferase 5, PRMT5, with Antitumor Activity” (ACS Med Chem Lett, 2018).
pEC50, pIC50: −log10 of the molar value. Active and inactive are the calls of the source. No cut-off for these calls is given here.

Assays:
[1] = biological target: Histone-arginine methyltransferase CARM1 (Homo sapiens) (UniProt Q86X55); assay: Inhibition of PRMT4 (unknown origin) at 10 uM using peptide substrate measured after 2 hrs in presence of [3H]-SAM by topcount scintillation proximity assay
Chain of UniProt Q86X55 (Q86X55 whole entry): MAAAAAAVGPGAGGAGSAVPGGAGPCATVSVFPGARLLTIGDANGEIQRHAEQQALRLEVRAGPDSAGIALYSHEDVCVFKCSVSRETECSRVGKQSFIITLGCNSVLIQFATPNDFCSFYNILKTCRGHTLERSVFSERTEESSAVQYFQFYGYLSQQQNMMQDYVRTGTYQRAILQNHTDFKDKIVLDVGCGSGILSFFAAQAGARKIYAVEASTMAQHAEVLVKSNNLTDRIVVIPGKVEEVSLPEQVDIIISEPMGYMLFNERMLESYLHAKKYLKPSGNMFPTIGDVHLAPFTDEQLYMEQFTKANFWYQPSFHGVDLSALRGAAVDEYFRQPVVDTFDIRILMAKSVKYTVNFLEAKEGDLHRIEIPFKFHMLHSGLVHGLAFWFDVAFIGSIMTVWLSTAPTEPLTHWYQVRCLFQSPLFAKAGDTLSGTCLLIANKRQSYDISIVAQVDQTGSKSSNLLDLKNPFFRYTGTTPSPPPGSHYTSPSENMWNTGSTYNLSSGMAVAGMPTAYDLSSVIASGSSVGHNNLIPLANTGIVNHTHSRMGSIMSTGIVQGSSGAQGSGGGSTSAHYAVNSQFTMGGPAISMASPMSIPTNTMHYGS
In short: (§1)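 Radioactive methyltransferase panel (32 enzymes); compound tested at 1 and 10 μM; methyl transfer from 3H-SAM measured.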

[2] = biological target: Protein arginine N-methyltransferase 6 (Homo sapiens) (UniProt Q96LA8); assay: Inhibition of PRMT6 (unknown origin) at 10 uM using peptide substrate measured after 2 hrs in presence of [3H]-SAM by topcount scintillation proximity assay; in short: as §1
Chain of UniProt Q96LA8 (Q96LA8 whole entry, looked up): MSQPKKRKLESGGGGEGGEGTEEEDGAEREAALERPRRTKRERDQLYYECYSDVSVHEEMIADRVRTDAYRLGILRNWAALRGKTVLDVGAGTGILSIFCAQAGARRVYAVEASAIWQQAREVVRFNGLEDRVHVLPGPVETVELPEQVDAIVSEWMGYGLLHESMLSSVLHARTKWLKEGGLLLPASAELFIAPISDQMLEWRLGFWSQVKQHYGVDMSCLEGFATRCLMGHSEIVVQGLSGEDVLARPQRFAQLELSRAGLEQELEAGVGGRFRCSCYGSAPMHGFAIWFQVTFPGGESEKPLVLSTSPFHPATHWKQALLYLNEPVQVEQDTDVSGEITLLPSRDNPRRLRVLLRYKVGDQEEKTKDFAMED

[3] = biological target: Protein arginine N-methyltransferase 7 (Homo sapiens) (UniProt Q9NVM4); assay: Inhibition of PRMT7 (unknown origin) at 10 uM using peptide substrate measured after 2 hrs in presence of [3H]-SAM by topcount scintillation proximity assay; in short: as §1
Chain of UniProt Q9NVM4 (Q9NVM4 whole entry): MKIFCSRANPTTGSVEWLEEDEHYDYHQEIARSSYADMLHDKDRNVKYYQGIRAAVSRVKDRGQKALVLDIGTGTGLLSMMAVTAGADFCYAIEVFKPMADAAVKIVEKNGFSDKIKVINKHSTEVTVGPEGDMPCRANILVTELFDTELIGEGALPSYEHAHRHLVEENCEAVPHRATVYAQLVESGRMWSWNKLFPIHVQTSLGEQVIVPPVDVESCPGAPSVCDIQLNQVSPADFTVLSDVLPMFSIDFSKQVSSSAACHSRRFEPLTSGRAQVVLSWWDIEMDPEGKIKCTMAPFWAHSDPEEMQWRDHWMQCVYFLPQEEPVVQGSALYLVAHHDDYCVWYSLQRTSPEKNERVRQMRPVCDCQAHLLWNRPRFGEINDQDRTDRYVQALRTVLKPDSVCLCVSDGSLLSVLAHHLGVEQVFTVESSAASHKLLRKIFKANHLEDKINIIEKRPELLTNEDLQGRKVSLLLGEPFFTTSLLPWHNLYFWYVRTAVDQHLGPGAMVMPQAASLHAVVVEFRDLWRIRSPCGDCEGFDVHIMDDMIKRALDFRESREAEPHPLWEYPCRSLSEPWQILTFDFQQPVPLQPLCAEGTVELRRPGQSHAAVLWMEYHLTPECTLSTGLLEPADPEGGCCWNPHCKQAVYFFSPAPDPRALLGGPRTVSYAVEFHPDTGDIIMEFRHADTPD

[4] = biological target: T1, Protein arginine N-methyltransferase 5 (Homo sapiens, UniProt O14744); assay: Inhibition of PRMT5 in human MCF7 cells assessed as reduction in SmBB'-Rme2s levels after 48 hrs by Western blot analysis; format: cell-based
T1 sequence (O14744 whole entry): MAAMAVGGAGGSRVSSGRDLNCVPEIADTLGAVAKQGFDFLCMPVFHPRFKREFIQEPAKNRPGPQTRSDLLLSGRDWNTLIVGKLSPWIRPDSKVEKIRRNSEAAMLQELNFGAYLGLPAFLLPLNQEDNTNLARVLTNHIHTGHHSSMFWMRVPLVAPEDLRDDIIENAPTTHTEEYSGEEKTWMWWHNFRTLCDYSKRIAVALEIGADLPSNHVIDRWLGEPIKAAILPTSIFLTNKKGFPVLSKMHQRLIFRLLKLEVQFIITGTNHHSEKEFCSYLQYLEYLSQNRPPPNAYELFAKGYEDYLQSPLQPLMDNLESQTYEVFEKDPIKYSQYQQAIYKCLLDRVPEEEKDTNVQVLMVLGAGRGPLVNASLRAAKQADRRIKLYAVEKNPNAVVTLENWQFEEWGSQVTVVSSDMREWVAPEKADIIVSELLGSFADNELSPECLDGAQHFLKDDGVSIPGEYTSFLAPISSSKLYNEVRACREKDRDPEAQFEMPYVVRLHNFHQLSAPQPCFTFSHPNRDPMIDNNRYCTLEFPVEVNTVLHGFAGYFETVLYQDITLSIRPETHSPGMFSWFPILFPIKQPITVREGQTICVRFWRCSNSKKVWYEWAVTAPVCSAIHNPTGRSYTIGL
In short: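 MCF7 cells were treated for 48 h over a concentration series, then SmBB′-Rme2s was measured by Western blot. Signal was normalized to total SmBB′, and IC50 came from a nonlinear dose–response fit.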

HCC1937 = assay: Antiproliferative activity against human HCC1937 cells after 7 days by cell-titer glo based luminescence assay; format: functional
In short: (§2)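 7-day proliferation run with CellTiter-Glo luminescence. Reported values are IC50 and maximum inhibition (%) for each cell line. Where the assay was repeated (A375, n = 3), IC50 is given as mean ± SEM.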

[5] = Antiproliferative activity against human T-42D cells after 7 days by cell-titer glo based luminescence assay; format: functional; in short: as §2
UACC-812 = assay: Antiproliferative activity against human UACC-812 cells after 7 days by cell-titer glo based luminescence assay; format: functional; in short: as §2
MX1 = assay: Antiproliferative activity against human MX1 cells after 7 days by cell-titer glo based luminescence assay; format: functional; in short: as §2
NUGC-3 = assay: Antiproliferative activity against human NUGC3 cells after 7 days by cell-titer glo based luminescence assay; format: functional; in short: as §2
[6] = Antiproliferative activity against human KE-97 cells after 7 days by cell-titer glo based luminescence assay; format: functional; in short: as §2
MV4-11 = assay: Antiproliferative activity against human MV4-11 cells after 7 days by cell-titer glo based luminescence assay; format: functional; in short: as §2
Daudi = assay: Antiproliferative activity against human Daudi cells after 7 days by cell-titer glo based luminescence assay; format: functional; in short: as §2
KARPAS-422 = assay: Antiproliferative activity against human KARPAS422 cells after 7 days by cell-titer glo based luminescence assay; format: functional; in short: as §2
HEL 92.1.7 = assay: Antiproliferative activity against human HEL 92.1.7 cells after 7 days by cell-titer glo based luminescence assay; format: functional; in short: as §2
ARH-77 = assay: Antiproliferative activity against human ARH77 cells after 7 days by cell-titer glo based luminescence assay; format: functional; in short: as §2
Rec1 = assay: Antiproliferative activity against human Rec1 cells after 7 days by cell-titer glo based luminescence assay; format: functional
In short: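 7-day proliferation assay in cancer cell lines, viability read by CellTiter-Glo luminescence; IC50 and maximal inhibition derived from dose response.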

IM-9 = assay: Antiproliferative activity against human IM9 cells after 7 days by cell-titer glo based luminescence assay; format: functional; in short: as §2
KMS-12-BM = assay: Antiproliferative activity against human KMS-12-BM cells after 7 days by cell-titer glo based luminescence assay; format: functional; in short: as §2
RPMI-8226 = assay: Antiproliferative activity against human RPMI8226 cells after 7 days by cell-titer glo based luminescence assay; format: functional; in short: as §2
OPM-2 = assay: Antiproliferative activity against human OPM2 cells after 7 days by cell-titer glo based luminescence assay; format: functional; in short: as §2
NCI-H2171 = assay: Antiproliferative activity against human NCI-H2171 cells after 7 days by cell-titer glo based luminescence assay; format: functional; in short: as §2
NCI-H2122 = assay: Antiproliferative activity against human NCI-H2122 cells after 7 days by cell-titer glo based luminescence assay; format: functional; in short: as §2
NCI-H1930 = assay: Antiproliferative activity against human NCI-H1930 cells after 7 days by cell-titer glo based luminescence assay; format: functional; in short: as §2
NCI-H1651 = assay: Antiproliferative activity against human NCI-H1651 cells after 7 days by cell-titer glo based luminescence assay; format: functional; in short: as §2
A-375 [7] = assay: Antiproliferative activity against human A375 cells after 7 days by cell-titer glo based luminescence assay; format: functional; in short: as §2
A2058 = assay: Antiproliferative activity against human A2058 cells after 7 days by cell-titer glo based luminescence assay; format: functional
GAK = assay: Antiproliferative activity against human GAK cells after 7 days by cell-titer glo based luminescence assay; format: functional
COLO-829 = assay: Antiproliferative activity against human COLO829 cells after 7 days by cell-titer glo based luminescence assay; format: functional
OVCAR-3 = assay: Antiproliferative activity against human OVCAR3 cells after 7 days by cell-titer glo based luminescence assay; format: functional
A-375 [8] = assay: Antitumor activity against human A375 cells xenografted in SCID nude mouse assessed as tumor growth inhibition at 20 mg/kg, po qd administered via gavage measured after 28 days; format: functional, organism-based
In short: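 A375 xenografts grown subcutaneously in SCID mice; compound given orally once daily at 20 mg/kg for 28 days; tumor growth inhibition versus vehicle-treated tumors.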

Mus musculus [9] = assay: Toxicity in SCID nude mouse xenografted with human A375 cells assessed as body weight loss at 20 mg/kg, po qd administered via gavage measured after 28 days; format: organism-based; settings: in vivo, 672 h
Mus musculus [10] = assay: Toxicity in SCID nude mouse xenografted with human A375 cells at 20 mg/kg, po qd administered via gavage measured after 28 days; format: organism-based; settings: in vivo, 672 h
[11] = biological target: T1, Protein arginine N-methyltransferase 5; assay: Inhibition of PRMT5 in human A375 cells assessed as skipping of Mdm4 exon 6 mRNA splicing after 72 hrs by qRT-PCR method
[12] = biological target: T1, Protein arginine N-methyltransferase 5; assay: Inhibition of PRMT5 in human MCF7 cells assessed as reduction in SmBB'-Rme2s levels at 1 uM after 48 hrs by Western blot analysis relative to control; format: cell-based
In short: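 MCF7 cells were exposed for 48 h, and SmBB′-Rme2s was detected by Western blot and normalized to total SmBB′. Results are expressed as % of DMSO control, mean ± SEM of three replicates.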

## Nc1ncnc2c1ccn2[C@@H]1O[C@H]([C@H](O)c2ccccc2)[C@@H](O)[C@H]1O
[1]
  inhibition: inactive
[2]
  inhibition: inactive
[3]
  inhibition: inactive
[4]
  pIC50: 7.60
  inhibition: Dose-dependent effect
HCC1937
  Imax: 83%
HCC1937; Homo sapiens, HCC1937, 168 h
  pIC50: 7.52
[5]
  Imax: 84%
[5]; Homo sapiens, 168 h
  pIC50: 8.52
UACC-812
  Imax: 21%
UACC-812; Homo sapiens, UACC-812, 168 h
  pIC50: < 5.60
MX1
  Imax: 36.9%
MX1; Homo sapiens, MX1, 168 h
  pIC50: < 5.60
NUGC-3
  Imax: 92%
NUGC-3; Homo sapiens, NUGC-3, 168 h
  pIC50: 7.77
[6]
  Imax: 95.7%
[6]; Homo sapiens, KE-97, 168 h
  pIC50: 7.62
MV4-11
  Imax: 93%
MV4-11; Homo sapiens, MV4-11, 168 h
  pIC50: 7.80
Daudi
  Imax: 99.3%
Daudi; Homo sapiens, Daudi, 168 h
  pIC50: 7.77
KARPAS-422
  Imax: 99.9%
KARPAS-422; Homo sapiens, KARPAS-422, 168 h
  pIC50: 7.07
HEL 92.1.7
  Imax: 91.2%
HEL 92.1.7; Homo sapiens, HEL 92.1.7, 168 h
  pIC50: 8.52
ARH-77
  Imax: 97.2%
ARH-77; Homo sapiens, ARH-77, 168 h
  pIC50: 8.00
Rec1
  Imax: 99.7%
Rec1; Homo sapiens, Rec1, 168 h
  pIC50: 7.66
IM-9
  Imax: 93%
IM-9; Homo sapiens, IM-9, 168 h
  pIC50: 7.34
KMS-12-BM
  Imax: 99%
KMS-12-BM; Homo sapiens, KMS-12-BM, 168 h
  pIC50: 8.22
RPMI-8226
  Imax: 88.5%
RPMI-8226; Homo sapiens, RPMI-8226, 168 h
  pIC50: 8.05
OPM-2
  Imax: 22.5%
OPM-2; Homo sapiens, OPM-2, 168 h
  pIC50: < 5.60
NCI-H2171
  Imax: 97.7%
NCI-H2171; Homo sapiens, NCI-H2171, 168 h
  pIC50: 8.00
NCI-H2122
  Imax: 90%
NCI-H2122; Homo sapiens, NCI-H2122, 168 h
  pIC50: 7.57
NCI-H1930
  Imax: 49.6%
NCI-H1930; Homo sapiens, NCI-H1930, 168 h
  pIC50: < 5.60
NCI-H1651
  Imax: 32%
NCI-H1651; Homo sapiens, NCI-H1651, 168 h
  pIC50: < 5.60
A-375 [7]
  Imax: 91.1%
A-375 [7]; Homo sapiens, A-375, 168 h
  pIC50: 7.34 to 7.43
A2058
  Imax: 96%
A2058; Homo sapiens, A2058, 168 h
  pIC50: 7.89
GAK
  Imax: 99.9%
GAK; Homo sapiens, GAK, 168 h
  pIC50: 7.80
COLO-829
  Imax: 51%
COLO-829; Homo sapiens, COLO-829, 168 h
  pIC50: 7.89
OVCAR-3
  Imax: 95%
OVCAR-3; Homo sapiens, OVCAR-3, 168 h
  pIC50: 7.49
A-375 [8]
  TGI: Active
Mus musculus [9]
  Activity: < 10%
Mus musculus [10]
  Activity: Non-Toxic
[11]
  pEC50: 7.40

## Nc1ncnc2c1ccn2[C@@H]1O[C@H]([C@@H](O)c2ccccc2)[C@@H](O)[C@H]1O
[12]
  inhibition: 20%
